This note sets out measurements from the GPR68 mutational scans of Howard et al. (2025).

The chains are these.
B1: GPR68, Q15743 (parent)
chain: MGNITADNSSMSCTIDHTIHQTLAPVVYVTVLVVGFPANCLSLYFGYLQIKARNELGVYLCNLTVADLFYICSLPFWLQYVLQHDNWSHGDLSCQVCGILLYENIYISVGFLCCISVDRYLAVAHPFRFHQFRTLKAAVGVSVVIWAKELLTSIYFLMHEEVIEDENQHRVCFEHYPIQAWQRAINYYRFLVGFLFPICLLLASYQGILRAVRRSHGTQKSRKDQIQRLVLSTVVIFLACFLPYHVLLLVRSVWEASCDFAKGVFNAYHFSLLLTSFNCVADPVLYCFVSETTHRDLARLRGACLAFLTCSRTGRAREAYPLGAPEASGKSGAQGEEPELLTKLHPAFQTPNSPGSGGFPTGRLA

Variants of B1 are the subject of data set [1]. Put plainly: cAMP reporter score (Enrich2 score, wild type = 0); higher = more signal; HEK293T, FACS bins.
Data set [2] covers variants of B1. The data set is described as follows: surface expression score (Enrich2 score, wild type = 0); higher = more signal; HEK293T, FACS bins.

Scores whose standard error is large were omitted. Two further conditions of the source, in which the scores hardly spread, are not listed. In variant names, del marks residues removed and ins residues inserted between the two positions. For some assays here: How much ogerin was present is not stated here.

For MGNITADNSSMPCTIDHTIHQTLAPVVYVTVLVVGFPANCLSLYFGYLQIKARNELGVYLCNLTVADLFYICSLPFWLQYVLQHDNWSHGDLSCQVCGILLYENIYISVGFLCCISVDRYLAVAHPFRFHQFRTLKAAVGVSVVIWAKELLTSIYFLMHEEVIEDENQHRVCFEHYPIQAWQRAINYYRFLVGFLFPICLLLASYQGILRAVRRSHGTQKSRKDQIQRLVLSTVVIFLACFLPYHVLLLVRSVWEASCDFAKGVFNAYHFSLLLTSFNCVADPVLYCFVSETTHRDLARLRGACLAFLTCSRTGRAREAYPLGAPEASGKSGAQGEEPELLTKLHPAFQTPNSPGSGGFPTGRLA [S12P], the cAMP reporter score was -0.036 in data set [1] (pH 5.5); -0.693 in data set [1] (pH 6); -0.254 in data set [1] (pH 6, modulator: ogerin); 0.016 in data set [1] (pH 6.5, modulator: ogerin). Also, the surface expression score in data set [2] was -0.042.

As to MGNITADNSSMQCTIDHTIHQTLAPVVYVTVLVVGFPANCLSLYFGYLQIKARNELGVYLCNLTVADLFYICSLPFWLQYVLQHDNWSHGDLSCQVCGILLYENIYISVGFLCCISVDRYLAVAHPFRFHQFRTLKAAVGVSVVIWAKELLTSIYFLMHEEVIEDENQHRVCFEHYPIQAWQRAINYYRFLVGFLFPICLLLASYQGILRAVRRSHGTQKSRKDQIQRLVLSTVVIFLACFLPYHVLLLVRSVWEASCDFAKGVFNAYHFSLLLTSFNCVADPVLYCFVSETTHRDLARLRGACLAFLTCSRTGRAREAYPLGAPEASGKSGAQGEEPELLTKLHPAFQTPNSPGSGGFPTGRLA [S12Q], the cAMP reporter score is 0.547 in data set [1] (pH 5.5); -0.575 in data set [1] (pH 6); 0.547 in data set [1] (pH 6, modulator: ogerin); 0.269 in data set [1] (pH 6.5, modulator: ogerin). The surface expression score in data set [2] turned out to be 1.56.

MGNITADNSSMRCTIDHTIHQTLAPVVYVTVLVVGFPANCLSLYFGYLQIKARNELGVYLCNLTVADLFYICSLPFWLQYVLQHDNWSHGDLSCQVCGILLYENIYISVGFLCCISVDRYLAVAHPFRFHQFRTLKAAVGVSVVIWAKELLTSIYFLMHEEVIEDENQHRVCFEHYPIQAWQRAINYYRFLVGFLFPICLLLASYQGILRAVRRSHGTQKSRKDQIQRLVLSTVVIFLACFLPYHVLLLVRSVWEASCDFAKGVFNAYHFSLLLTSFNCVADPVLYCFVSETTHRDLARLRGACLAFLTCSRTGRAREAYPLGAPEASGKSGAQGEEPELLTKLHPAFQTPNSPGSGGFPTGRLA [S12R]: the cAMP reporter score was 0.228 in data set [1] (pH 5.5); -0.046 in data set [1] (pH 6); 0.695 in data set [1] (pH 6, modulator: ogerin); 1.02 in data set [1] (pH 6.5, modulator: ogerin). Also, the surface expression score in data set [2] was 0.785.

MGNITADNSSMTCTIDHTIHQTLAPVVYVTVLVVGFPANCLSLYFGYLQIKARNELGVYLCNLTVADLFYICSLPFWLQYVLQHDNWSHGDLSCQVCGILLYENIYISVGFLCCISVDRYLAVAHPFRFHQFRTLKAAVGVSVVIWAKELLTSIYFLMHEEVIEDENQHRVCFEHYPIQAWQRAINYYRFLVGFLFPICLLLASYQGILRAVRRSHGTQKSRKDQIQRLVLSTVVIFLACFLPYHVLLLVRSVWEASCDFAKGVFNAYHFSLLLTSFNCVADPVLYCFVSETTHRDLARLRGACLAFLTCSRTGRAREAYPLGAPEASGKSGAQGEEPELLTKLHPAFQTPNSPGSGGFPTGRLA [S12T]: the cAMP reporter score in data set [1] (pH 5.5) was 0.794; in data set [1] (pH 6), 1.5; in data set [1] (pH 6, modulator: ogerin) it was -0.076; in data set [1] (pH 6.5, modulator: ogerin), 0.408. In addition, the surface expression score in data set [2] was 0.924.
